# Assay results: PubChem BioAssay AID1508642 (National Center for Advancing Translational Sciences (NCATS), 2021)
# The whole screen tested about 43,000 compounds, of which about 200 (0.47%) were called active. Roughly 12% stayed inconclusive and do not appear here. Calls come from the whole dose curve; as a rule, active = well fitted cell-killing curve with a large enough effect; inconclusive = small, poorly fitted or top-dose-only effect, or effect the other way; inactive = flat fitted curve, though single readings scatter. The list shows a part of the results.
# Assay: Cell viability qHTS assay in S16 Pmp22-F2sN cells; note: nearly all actives have a fitted effect of over 65% in size
# Details: S16 Pmp22-F2sN Schwann cells (luciferase reporters placed in the Pmp22 gene) viability, CellTiter-Glo, 24 h; series mostly up to 57.5 µM; activity change, negative = cytotoxicity: at the top concentration
# Procedure, shortened: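 Luminescence from CellTiter-Glo, read by CCD camera after a 15 min room-temperature incubation, served as the viability signal. Reporter Schwann cells (S16 Pmp22-F2sN) had been treated with pin-transferred compounds for 24 h at 37C.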
# % is set by controls: 0 for no effect and ±100 for the full control effect.
row,Structure (SMILES),"activity change, negative = cytotoxicity"
1,COc1ccc(CCN2C(=O)NC(NS(=O)(=O)c3ccc(NC(C)=O)cc3)(C(F)(F)F)C2=O)cc1OC (configuration not stated),inactive: 1.73%
2,CC(=O)Nc1ccc2nc(SCCOc3cc(C)cc(C)c3)sc2c1,inactive: -20.2%
3,COC(=O)c1ccc(OCC2c3cc(OC)c(OC)cc3CCN2C(=O)Cc2ccccc2)cc1 (configuration not stated),inactive: 7.83%
4,Cn1cnnc1SCC(=O)Nc1ccc(C#N)cc1,inactive: 2.43%
5,CN(CC(=O)NCc1ccccc1)S(=O)(=O)c1ccc2[nH]c3c(c2c1)CCCC3,inactive: 2.75%
6,COc1ccc(-c2[nH]c(-c3cccc(OC)c3)nc2SCC(=O)NC2CCCC2)cc1,inactive: -10.3%
7,CC(C)(C)C1CCc2c(sc(NC(=O)c3ccc(Cl)cc3)c2C(=O)NCc2ccco2)C1 (configuration not stated),inactive: 16.2%
8,COc1ccccc1N1CCN(c2ncnc3c2cnn3-c2cccc(Cl)c2)CC1,inactive: 14.8%
9,COc1ccc(-c2cn3nc(N4CCCC(C(=O)Nc5cc(C)cc(C)c5)C4)sc3n2)cc1 (configuration not stated),inactive: 13.6%
10,CCc1ccccc1NC(=O)C1(C)Cc2ccccc2C(=O)O1 (configuration not stated),inactive: 14.6%
11,CCOC(=O)CSc1nc2ccc(NC(=O)c3ccc(Cl)cc3)cc2s1,inactive: 7.59%
12,COc1cccc(-c2nc(CS(=O)(=O)CC(=O)Nc3cccc(C(C)=O)c3)c(C)o2)c1,inactive: -19.6%
13,COC(=O)c1ccc(NC(=O)C2CCN(c3ncnc4c3nc3n4CCCCC3)CC2)cc1,inactive: 3.18%
14,COc1ccc(CCNc2ncnc3c2c(-c2ccccc2)cn3-c2ccc(Cl)cc2)cc1OC,inactive: -21%
15,CCOC(=O)c1ccccc1NC(=O)CSc1nnc(CC)n2c1cc1occc12,inactive: -2.04%
16,COc1ccc(C)cc1NC(=O)c1cc(S(=O)(=O)N2CCC(C)CC2)ccc1F,inactive: 10.4%
17,Fc1ccc(-c2cc3ncc4c(n3n2)-c2cc(Cl)ccc2OC4)cc1,inactive: -0.435%
18,Cc1cc(C)cc(NC(=O)CSc2c(C(C)C)cnc3c2c(=O)n(C)c(=O)n3C)c1,inactive: -3.38%
19,Cc1cc(C)cc(Nc2cc(C(=O)NC3CCCCC3)c3ccccc3n2)c1,inactive: 12.8%
20,Cc1oc(-c2ccccc2F)nc1Cn1c(SCc2cccc(C(F)(F)F)c2)nc2ccncc21,inactive: 23%
21,CCc1ccccc1NC(=O)c1cc(-c2ccc(Cl)s2)nc2ccccc12,inactive: -24.5%

row,Structure (SMILES),"activity change, negative = cytotoxicity"
1,O=C(Nc1ccccc1F)c1cnc(N2CCCCC2)c2ccccc12,inactive: 2.06%
2,CCOc1ccccc1NC(=O)Cn1c(=O)n(Cc2ccc(OC)cc2)c(=O)c2oc3ccccc3c21,inactive: 13.2%
3,COc1ccc(OC)c(CNC(=O)CCCn2c(=O)c3cccn3c3cccnc32)c1,inactive: 4.87%
4,Cc1cccc(-n2c(C)cc(C(=O)C(=O)Nc3nncs3)c2C)c1,inactive: -0.995%
5,COc1ccccc1-c1nnc(C2CCN(C(=O)c3ccccc3C)CC2)o1,inactive: 3.71%
6,COc1ccc(N(CC(=O)Nc2cc(OC)cc(OC)c2)S(=O)(=O)c2c(C)noc2C)cc1,inactive: -20.4%
7,Cc1cc2c(cc1S(=O)(=O)Nc1ccc(C(C)C)cc1)OCCN2C,inactive: -1.02%
8,CCOc1ccc(C(=O)Nc2ccc3c(c2)CCCN3S(=O)(=O)c2ccc(C)cc2)cc1,inactive: -2.68%
9,CC1CCCCN1Cc1c(O)ccc2c(=O)c(-c3ccc(Cl)cc3)c(C(F)(F)F)oc12 (configuration not stated),inactive: -6.73%
10,CC1=C(C(=O)OCc2ccc(C)cc2)C(c2ccccc2C(F)(F)F)CC(=O)N1 (configuration not stated),inactive: 3.22%
11,Cc1ccc(OCCSc2nc3ccccc3n2CC(=O)N2CCOCC2)cc1,inactive: 14.1%
12,CCOC(=O)c1noc2ncn(CC(=O)Nc3ccc(F)cc3Cl)c(=O)c12,inactive: -0.705%
13,CCOc1ccc(NC(=O)CSc2nnc3scc(-c4ccccc4)n23)cc1,inactive: 7.14%
14,COC(=O)c1c(NC(=O)c2ccc(Cl)c(Cl)c2)sc2c1CCCC2,inactive: 9.49%
15,COc1ccc(CNC(=O)c2cc(-c3ccc(Br)s3)nc3ccccc23)c(OC)c1,inactive: -3.38%
16,Cc1ccc(-n2ncc(C(=O)Nc3ccc4c(c3)OCCO4)c2C2CCN(C(=O)OC(C)(C)C)CC2)cc1C,inactive: -24.6%
17,CC1=C(C(=O)NCc2cccc(F)c2)C2(CCCCCC2)OC1=O,inactive: -17.6%
18,COc1ccccc1NC(=O)CC1Sc2ccc(C(F)(F)F)cc2NC1=O (configuration not stated),inactive: 12.6%
19,CCOc1ccccc1CNC(=O)Cn1c(=O)c2cccn2c2ccc(F)cc21,inactive: -14.8%
20,COc1ccccc1N1CCN(C(=O)Cn2ncc3c2-c2cc(C)ccc2OC3)CC1,inactive: -21.5%
21,COc1ccc(Nc2nc3ccc(C)cc3nc2-n2nc(C)cc2C)cc1Cl,inactive: 10.7%

row,Structure (SMILES),"activity change, negative = cytotoxicity"
1,COCCN1CCc2nc(SCC(=O)Nc3ccc(C)c(Cl)c3)[nH]c(=O)c2C1,inactive: 3.88%
2,CCN(c1ccccc1C)S(=O)(=O)c1nnc(NC(=O)c2ccc(OC)c(OC)c2)s1,inactive: -3.12%
3,Cc1ccc(C2=Nc3ccccc3N=C(c3ccc(F)cc3)C2)c(O)c1,inactive: 4.26%
4,O=C(NCCSc1c[nH]c2ccccc12)c1ccc(Cl)cc1,inactive: -27.1%
5,Cc1ccc(N2CC(NC(=O)CCCc3ccccc3)CC2=O)cc1 (configuration not stated),inactive: 6.79%
6,COc1ccc(Cn2c(SCc3ccc(C(=O)NCc4ccc(C)cc4)cc3)nc3cccnc32)cc1,inactive: -15.3%
7,O=C(NCCc1ccccc1)c1ccc2c(c1)N(Cc1ccc(Cl)cc1)C(=O)c1ccccc1S2(=O)=O,inactive: 1.17%
8,Cc1ccc(Cl)cc1N1CCN(c2nc3ccc(C(=O)c4ccccc4)cc3n3cnnc23)CC1,inactive: 1.63%
9,O=C(Cn1nc(Cc2cccnc2)c2ccccc2c1=O)N1CCN(c2ccccc2F)CC1,inactive: 10%
10,COc1ccc(CNC(=O)c2ccc(CN3C(=O)C(C)=C(c4ccc(C)cc4)S3(=O)=O)cc2)cc1,inactive: -4.06%
11,CCc1nc(SC)ncc1C(=O)NCc1cccc(Br)c1,inactive: -0.951%
12,CCC1CCCCN1CCCNC(=O)c1ccc2c(c1)c(C)c(C)n2CC (configuration not stated),inactive: -6.28%
13,CCOC(=O)c1c(Nc2ccc(C)c(C)c2)nnc(-c2ccccc2)c1-c1ccccc1,inactive: -20.9%
14,O=C(NCCc1ccccc1)c1c[nH]c2ccc(S(=O)(=O)Nc3ccc(F)cc3F)cc2c1=O,inactive: 1.52%
15,CCCC(=O)Nc1cc2nn(-c3ccc(OC)cc3)nc2cc1C,inactive: 5.76%
16,CCc1ccc(C(=O)c2cn(CC(=O)NCCc3ccccc3)c3nc(C)ccc3c2=O)cc1,inactive: 18.6%
17,COc1cccc(NC(=O)C2CCCN(c3ncnc4onc(-c5ccc(F)cc5)c34)C2)c1 (configuration not stated),inactive: -12.8%
18,COc1ccc(CNC(=O)CN2N=C(c3ccc(Cl)cc3)CCC2=O)cc1,inactive: -0.444%
19,COc1ccc(-c2nn(C)c3sc(C(=O)NCCN(C)C)cc23)cc1OC,inactive: -28.7%
20,Cc1cc(C)c(NC(=O)Cn2c(=O)n(CCC(C)C)c(=O)c3cccnc32)c(C)c1,inactive: -11.3%
